The text below walks through data of the RNAGym collection of RNA variant scans (doi:10.7554/elife.90254).

The source gives no read counts; variants with many changes may rest on few reads.

The labels stand for the following.
B1: LINE1-mini (parent)
chain: GGCAGAGCUCAACACAGCGUGGCAAAGUGGCUGUGGCUAGACUGCC

The data set covers variants of B1. Nature of the data set: self-cleavage, relative activity (ratio to wild type); higher = more cleavage; in vitro, sequencing; the parent is a self-cleaving ribozyme.
G5A A12G A16U G17U G21U: the self-cleavage was determined as 0.01.
For the variant C13A C15U U28C C31U G44U, the self-cleavage worked out at 0.16.
On to C3A C42A C45U, for which the self-cleavage turned out to be 0.22.
Next, G1A C3U A14G G36C G44C: 0.32.
With G19A C31U G36A A39C the figure was 0.07; with G7C A26C U38C G44A, 0.15.
Consider G21A U32G G35U U38C, for which the self-cleavage came out at 0.06.
As for G7A C8A A14U G17A G22U C45G, the self-cleavage was found to be 0.45.
With G1C G5U G27C U28C the figure was 0; with A4C A39C G40A, 0.04; with G2A C15U C31A, 0.34.
A12U A14G A26U U32G C45U: the self-cleavage was found to be 0.02.
With C10U A16G G21U the figure was 0.23.
A6C A12G G29U: the self-cleavage is 0.07.
Next, G2A C13G C15U U20A U34A U38G C42U: 0.39; U20G G21C U28C G36C G44U: 0.03; G2C C13U G35A A39G: 0.22.
For the variant C18A G22A G27U U34G G44U, the self-cleavage came to 0.02.
Next, G17A C23U U38G: 0.05; A4C A12G G29A: 0.14.
Next, G5C C10A G22U C23A: 0.01.
As to A16C C18U G29C, the self-cleavage was found to be 0.3.
As to G2U C13U G27U C31U G44A, the self-cleavage came to 0.01.
With G2A G40C U43A the figure was 0.03; with C3U U9G C18A A41U C46A, 0.13.
Next, C8A G21U G27U: 0.1; U20A G30A U38G: 0.03.
With A12G G17C C23G G30A C37U G40U C42U C46U the figure was 0.05; with A4U G17C U20A C42G, 0.01; with G7A C10G G21U C42G C45G, 0.01.
Regarding G5U A25G A26C G36U, the self-cleavage worked out at 0.09.
Next, C8A C15A A41C: 0.32; G2U G27A G29A: 0.07.
Next, C8A C10U A12U C37U: 0.01.
With A14U G21C C46U the figure was 0.1; with C15A A16C C18G U20A G22C G29U G30U U32G, 0.06.
On to A11U C18U U20C U34G U38C U43G, for which the self-cleavage stood at 0.
Next, C10A A16G C23G C37A C45U: 0; G5U C18U U38C G44A: 0.02.
Next, A4G A6C C8A G21A G22A G40U U43C: 0.09; G22A C31G C37U: 0.03; G21U G27A G35A G36A: 0.06.
With A12C C18A G27U G36U the figure was 0.03.
In the case of A14U G36U U43A, the self-cleavage is 0.07.
With C10G G36U C46A the figure was 0.02; with C8G A11G G33A, 0.03; with G1C G17U C37G, 0.02.
G1C A12U C18A: the self-cleavage was determined as 0.03.
A14U U34A C37U: the self-cleavage was 0.03.
With G5C G22U A26C the figure was 0.06.
With C3G G21U A25C U38C the figure was 0.23.
Next, C8U A14U G33A G35A: 0.02; U9G A14U G29U: 0.04.
Take G17U U34G G40U: the self-cleavage stood at 0.09.
With C18A G22U C23A the figure was 1.12.
With A6U C15A U38G C45G, the self-cleavage turned out to be 0.01.
Next, C3G A11U G27C G29A G30U G40C: 0.01.
With A24U U28C G33C A39U the figure was 0.03; with A12C C23U C42A, 0.05; with C10A A39U U43C, 0.01.
With U28A G33U C37A A41C the figure was 0.1.
As for C8U C13U C31G, the self-cleavage is 0.31.
Next, G22A A24C U38A: 0.28; G2U G35C U43G C45A: 0.01; A6U C8A A16C A26G G27A G35A C46A: 0.13.
With G7U C8A G19C G36C A39C the figure was 0.08; with A12C C13U G21U G40C, 0.08.
Next, G5A A16G U28A: 0.03.
Turning to C10G C31U U32A G33C U34G C45A, the self-cleavage was determined as 0.01.
Next, U9C A11C A16C G27A: 0.01; A16U U32A G33C A39U G44A: 0.01.
Consider C10A A12G C37U C42U, for which the self-cleavage is 0.
With C13U U20G C23G G30U the figure was 0.04; with G1U U20A G33U, 0.06; with U9A C13U C23U C45A, 0.09.
A6U G40C C45U: the self-cleavage is 0.04.
In the case of C3G A4C A24C G29U G44C, the self-cleavage turned out to be 0.05.
With A4G U28G U32G C42U U43C the figure was 0.01.
With U9C C42A G44U the figure was 0; with G1U C10G A14U A26G G30A G40U, 0.
Next, C10A U20G C31A A39U: 0.03; G5A C10G U28C C46G: 0.03.
In the case of G7A C15G G17A, the self-cleavage turned out to be 0.03.
With G2C C3A C8U A11C G19A C23A C46A the figure was 0.03.
With C13G U20G C45U C46A the figure was 0.01; with U20C A25G G30U C37U, 0.
With A11C C18A G22A U28G the figure was 0.02; with G1A G2U A4U C10G A25G G44A, 0.02; with G1C G2A C23U A25U C46A, 0.4.
A4C G5U A24U G30C C31G: the self-cleavage amounted to 0.05.
With U9A A26U U32A the figure was 0.08; with A12U G27A A39U, 0.13.
Next, G1U U9C A14U C15A A16U C18A C45A: 0.01; C18A G19A U20A: 0.73; C15G U20A U34G G35A: 0.04.
Next, G5U G21C U32C: 0.05; C18A C23G G27C U28G G29U U43G: 0.13; G5A C10G A12G A16U: 0.01.
Regarding C3G A6C C13U A25C, the self-cleavage was 0.12.
As to C18U G33U U34G A41G, the self-cleavage turned out to be 0.
Next, G7U U9G C10U G44C: 0.05; G7A C10G G22A: 0.02.
Next, G2C A11G A24C G30U G40U A41C C46A: 0.01.
As to A12G U28G G44A, the self-cleavage was 0.06.
With G2U A4U G21U U34G the figure was 0.02; with C10G A11C G19A A26C U28C, 0.
For the variant C3A A12U G36A, the self-cleavage came to 0.14.
With G5C A25U G36A G44C the figure was 0.08.
Next, A11G C15A C18A G29A: 0.01.
Next, G7U C10G U38G: 0.01.
With C8U C13U A24G U34G, the self-cleavage worked out at 0.18.
With A24G G35C G36A U38G A41G the figure was 0.02; with C18U G21U C31A, 0.09.
For the variant A16G C18U G29A, the self-cleavage is 0.35.
Next, C3G A6G U34G: 0.03; G5U A14C A24G: 0.63; G1U C8U A12C A39G: 0.01.
With A11U A16C G21C C23A G35A the figure was 0.01.
Next, A24C G30C U32G: 0.06; G1A G7A G21A U32G: 0.81; A4G U20G A24G: 0.21.
On to C13U G29C U34A, for which the self-cleavage worked out at 0.02.
Take G1A C8U A24U U28G: the self-cleavage was found to be 1.06.
With C8A C13A G19A, the self-cleavage is 0.22.
With G5U A11G A12U C15A G22A G27A the figure was 0; with A12G G21C A25G, 0.01; with A11C C13U C42U, 0.
With A4C A14G A24G the figure was 0.09.
For the variant A14U C15U C18U, the self-cleavage came to 0.01.
Next, G5A A11C C42U: 0.04; C10A A14C G19C A26C U38G A39U: 0.01; G5C A16G G17C G44C: 0.02.
As for G2C C10U G35A G40C, the self-cleavage stood at 0.02.
Next, G19U C23A A26C G27C: 0.34; G21U G33U U43A: 0.01; G1U G29U A39G: 0.07.
Take G5C G19U C23A U34A A39G: the self-cleavage came to 0.02.
For the variant C10U U28A C37U G40A, the self-cleavage was 0.03.
In the case of U20A G30A C31U, the self-cleavage amounted to 0.
Next, A25G G30A C42U C46U: 0.15; A6U C8A A26G: 0.27; G7U C23U G36U A39C: 0.04.
Next, C10A U38A C46A: 0.08; A6C C15U U34A: 0.11; G19A G27C C37A C46A: 0.01.
With G19C G21C U38A, the self-cleavage is 0.04.
With G5C A6G A12G C13A U20G G21U the figure was 0.04; with G22A G35U C37U, 0.02; with G5U A26U C31G, 0.
With A6C A11C C15U A24G the figure was 0.02; with G17U G29A C31A, 0.6.
With C13A C15A A41G the figure was 0.01.
A14G G35C U38A: the self-cleavage turned out to be 0.01.
With G5U C15G G19A C31G U34A G40U the figure was 0.02; with C18G C31G A39C, 0; with C3A A6U C8A C13U G17C U32C, 0.23.
Next, A12C G33U G35U U43A: 0; C23U C31A G36C C46U: 0.07.
Take C15U G36U U38G: the self-cleavage came to 0.
Next, A26G G40U C46U: 0.09; G1U G21A C23A A39G: 0.03.
With A6G A11G A12C G36U G44U the figure was 0.01.
Next, U9G A16C C23U G27U G40C: 0.02; A26C G33U C46U: 0.06; G17U C23A G29A: 0.6.
For A12C G35U G36A, the self-cleavage is 0.
C10U A14U G21U U38A G40C: the self-cleavage turned out to be 0.09.
